Here are results for 31 compounds from the antibiotic and cytotoxicity screens of Wong et al. (2023).

Each structure is given as a SMILES string. Some of the results follow.

This assay concerns HSkMC (human skeletal muscle cells). Description: cytotoxicity call (relative viability < 0.9). Conditions: 10 µM.
For `CC(C)NC(=O)Nc1cccc2c1O[C@H](CN(C)S(=O)(=O)c1cccs1)[C@@H](C)CN([C@H](C)CO)C2=O`, the cytotoxicity call is “inactive”.

As to `CCS(=O)(=O)CCn1c([N+](=O)[O-])cnc1C`, the cytotoxicity call is “inactive”.

As to `C[C@H](CO)N1C[C@H](C)[C@@H](CN(C)C(=O)Nc2ccccc2C(F)(F)F)OCc2ccccc2-c2c(n(C)c3ccccc23)C1=O`, the cytotoxicity call was “inactive”.

Turning to `Cc1noc(C)c1S(=O)(=O)N(C)C[C@@H]1Oc2ccc(NS(C)(=O)=O)cc2C(=O)N([C@@H](C)CO)C[C@@H]1C`, the cytotoxicity call is “inactive”.

`CC1=NC[C@H](O)[C@@H](C(=O)O)N1`: the cytotoxicity call was “inactive”.

As for `C[C@H](CO)N1C[C@H](C)[C@@H](CN(C)S(=O)(=O)c2ccc(-n3cccn3)cc2)OCc2cnnn2CCCC1=O`, the cytotoxicity call is “inactive”.

Take `Nc1nc(N)c2nc(CNc3ccc(C(=O)NC(CCC(=O)O)C(=O)O)cc3)cnc2n1` (stereo unspecified): the cytotoxicity call was “inactive”.

For `O=c1[nH]c2ccsc2c(=O)n1CCO`, the cytotoxicity call is “inactive”.

As for `C[C@@H]1CCCCO[C@@H](CN(C)C(=O)Nc2cccc3ccccc23)[C@H](C)CN([C@H](C)CO)C(=O)c2cc(NS(=O)(=O)c3cn(C)cn3)ccc2O1`, the cytotoxicity call was “inactive”.

`CCOc1oc(C(=O)NC2CCCCC2)c(-c2ccc(Cl)cc2)c1S(=O)(=O)c1ccc(Cl)cc1`: the cytotoxicity call is “inactive”.

As to `C[C@H](CO)N1C[C@H](C)[C@H](CN(C)C(=O)Nc2ccccc2)Oc2ccc(NC(=O)CCN3CCOCC3)cc2C1=O`, the cytotoxicity call is “inactive”.

In the case of `C[C@H](CO)N1C[C@H](C)[C@H](CN(C)C(=O)Nc2ccc(F)cc2)Oc2ccc(NC(=O)C3CC3)cc2CC1=O`, the cytotoxicity call was “inactive”.

For `C[C@H]1CN([C@@H](C)CO)C(=O)Cc2cc(NC(=O)c3ccncc3)ccc2O[C@@H]1CN(C)S(=O)(=O)c1ccc(Cl)cc1`, the cytotoxicity call is “inactive”.

Turning to `CC(C)NC(=O)Nc1ccc2c(c1)C(=O)N([C@H](C)CO)C[C@H](C)[C@@H](CN(C)S(C)(=O)=O)OCCCC[C@@H](C)O2`, the cytotoxicity call is “inactive”.

As to `Cc1noc(C)c1S(=O)(=O)Nc1cccc2c1O[C@@H](CN(C)S(=O)(=O)c1ccc(Cl)cc1)[C@@H](C)CN([C@@H](C)CO)C2=O`, the cytotoxicity call was “inactive”.

Take `CC(C)CC#Cc1cnc2c(c1)C(=O)N([C@H](C)CO)C[C@@H](C)[C@H](CN(C)C(=O)c1ccc3c(c1)OCO3)O2`: the cytotoxicity call was “inactive”.

With `Cc1noc(C)c1NC(=O)N(C)C[C@@H]1Oc2c(NC(=O)Nc3cccc4ccccc34)cccc2C(=O)N([C@@H](C)CO)C[C@@H]1C`, the cytotoxicity call is “inactive”.

As to `C=CCC[C@H](Cc1ccc(F)cc1)C(=O)O[C@@H](CNC(=O)[C@@H](CC=C)CC(=O)N[C@@H](CO)Cc1ccccc1)c1ccccc1`, the cytotoxicity call is “inactive”.

For the compound `O=C(c1cccnc1)N1C[C@@H]2[C@H](c3ccccc31)[C@@H](CO)N2C(=O)CN1CCOCC1`, the cytotoxicity call was “inactive”.

As to `C=CCC[C@@H](Cc1ccc(F)cc1)C(=O)OC[C@@H](NC(=O)[C@@H](CC=C)CC(=O)N(CCO)Cc1ccccc1)c1ccccc1`, the cytotoxicity call is “active”.

Regarding `O.O.OCC1OC(OC2OC(CO)C(O)C(O)C2O)C(O)C(O)C1O` (stereo unspecified), the cytotoxicity call was “inactive”.

In the case of `C[C@@H]1CN([C@@H](C)CO)C(=O)c2cc(NC(=O)Cc3ccccc3)ccc2O[C@@H]1CN(C)Cc1ccc(Cl)c(Cl)c1`, the cytotoxicity call is “inactive”.

Take `C[C@H]1CN([C@@H](C)CO)C(=O)Cc2cc(NC(=O)NC3CCCCC3)ccc2O[C@H]1CN(C)S(=O)(=O)c1cn(C)cn1`: the cytotoxicity call was “inactive”.

For `COc1ccc(CN(C)C[C@H]2OCCCC[C@@H](C)Oc3ccc(NC(=O)CCC(F)(F)F)cc3C(=O)N([C@H](C)CO)C[C@H]2C)cc1`, the cytotoxicity call was “inactive”.

As for `C[C@@H]1CN([C@H](C)CO)C(=O)c2cc(N(C)C)ccc2O[C@H]1CN(C)S(=O)(=O)c1ccc(Cl)cc1`, the cytotoxicity call was “inactive”.

`COCC#Cc1ccc2c(c1)O[C@H](CN(C)C(=O)C1CCOCC1)[C@H](C)CN([C@H](C)CO)S2(=O)=O`: the cytotoxicity call was “inactive”.

In the case of `O=C(C[C@H]1CC[C@@H]2[C@H](COC[C@@H](O)CN2S(=O)(=O)c2ccccc2)O1)N[C@@H]1CCN(Cc2ccccc2)C1`, the cytotoxicity call was “inactive”.

`O=C(C[C@H]1C[C@H]2c3cc(NC(=O)Cc4ccncc4)ccc3O[C@H]2[C@@H](CO)O1)NCCN1CCCCC1`: the cytotoxicity call was “inactive”.

As to `COc1ccc(NC(=O)Nc2ccc3c(c2)C(=O)N([C@H](C)CO)C[C@H](C)[C@@H](CN(C)Cc2ccncc2)OCCCC[C@H](C)O3)cc1`, the cytotoxicity call was “inactive”.

Regarding `C[C@@H]1CN([C@@H](C)CO)C(=O)c2cccc(NC(=O)c3cnccn3)c2O[C@H]1CN(C)S(=O)(=O)c1cccs1`, the cytotoxicity call is “inactive”.

For the compound `CC(C)(O)c1cn(-c2ccc(-c3cc(F)c(CO)c(S(C)(=O)=O)c3)cc2F)c(C(C)(C)c2c(Cl)cccc2Cl)n1`, the cytotoxicity call is “inactive”.
